Measurements as given in PMC4336329 (PLoS ONE, 2015).
About 14,000 (4.5%) of roughly 310,000 compounds showed an effect of 50% or more. Effects have a minus sign here. The list shows a part of the results.

Molecular target: human ether-à-go-go-related gene (hERG) potassium channel (human, UniProt Q12809)
Experiment: primary screen, population patch clamp on CHO cells stably expressing hERG
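Also: peak tail current of the secondary pulse compared with the same well before compound.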

Chain of human ether-à-go-go-related gene (hERG) potassium channel (Q12809 whole entry, looked up): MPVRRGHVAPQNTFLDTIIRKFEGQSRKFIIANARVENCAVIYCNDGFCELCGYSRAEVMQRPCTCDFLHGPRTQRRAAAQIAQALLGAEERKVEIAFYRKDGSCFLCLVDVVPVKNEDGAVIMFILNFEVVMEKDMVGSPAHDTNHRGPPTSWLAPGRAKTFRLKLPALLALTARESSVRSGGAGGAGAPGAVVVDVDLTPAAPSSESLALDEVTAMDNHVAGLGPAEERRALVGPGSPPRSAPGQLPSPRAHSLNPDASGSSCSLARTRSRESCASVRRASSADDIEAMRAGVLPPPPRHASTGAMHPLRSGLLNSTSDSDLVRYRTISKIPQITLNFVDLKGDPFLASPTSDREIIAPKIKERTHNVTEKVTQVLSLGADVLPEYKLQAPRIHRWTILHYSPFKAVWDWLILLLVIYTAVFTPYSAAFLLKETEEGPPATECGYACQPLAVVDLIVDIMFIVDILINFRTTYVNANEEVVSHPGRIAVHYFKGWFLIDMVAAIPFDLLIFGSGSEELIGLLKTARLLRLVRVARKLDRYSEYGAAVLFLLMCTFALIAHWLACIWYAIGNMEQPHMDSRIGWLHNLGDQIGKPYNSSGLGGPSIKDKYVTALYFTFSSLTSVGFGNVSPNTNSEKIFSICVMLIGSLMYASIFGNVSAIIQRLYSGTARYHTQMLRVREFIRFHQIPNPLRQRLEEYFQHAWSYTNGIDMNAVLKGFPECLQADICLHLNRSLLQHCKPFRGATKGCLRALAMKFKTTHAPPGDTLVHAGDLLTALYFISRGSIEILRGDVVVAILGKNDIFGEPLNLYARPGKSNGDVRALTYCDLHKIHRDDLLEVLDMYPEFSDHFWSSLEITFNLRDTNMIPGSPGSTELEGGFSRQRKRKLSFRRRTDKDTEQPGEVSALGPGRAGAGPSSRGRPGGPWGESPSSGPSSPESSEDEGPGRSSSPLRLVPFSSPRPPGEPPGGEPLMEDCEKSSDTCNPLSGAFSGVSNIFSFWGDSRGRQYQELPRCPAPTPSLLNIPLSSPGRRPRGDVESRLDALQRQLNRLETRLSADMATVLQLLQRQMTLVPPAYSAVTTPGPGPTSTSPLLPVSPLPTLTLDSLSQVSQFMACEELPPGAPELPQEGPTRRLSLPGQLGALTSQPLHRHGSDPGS

Compound	hERG current change (%, negative = inhibition) at 10uM
COc1ccc(OC)c(NC(=O)c2cc3c(=O)n4ccccc4nc3n2C)c1	-0.57%
O=[N+]([O-])c1ccc(NC2CCCC2)cc1	-10.7%
CCCCn1c(SCC(=O)NCc2ccco2)nc2cc(S(N)(=O)=O)ccc21	-7.32%
COc1ccc(C(=O)NCc2nnc(SCC(=O)N3CCc4ccccc43)n2C2CCCCC2)cc1	9.92%
CCCOc1ccc(CCCN=C(N)N)cc1Cl.O=S(=O)(O)O	1.02%
COC(=O)c1ccc(Oc2nc(NC(C)C)nc(N(C)C)n2)cc1	12.5%
C/C(=N\NC(=O)c1cc(C)[nH]n1)C(C)(C)C	18.2%
Cc1ccc(NC(=O)CCN2C(=O)c3cccc([N+](=O)[O-])c3C2=O)c(Br)c1	2.1%
CC(C)Sc1ncc(S(=O)(=O)c2ccccc2)c(=O)[nH]1	32.2%
COc1ccccc1C(=O)Nc1ccnn1C1CCN(Cc2cnc(N(C)C)s2)CC1	-65%
N/C(=N\OC(=O)COc1ccc(Br)cc1Cl)c1cccnc1	12.4%
CC1=C2C3OC(=O)C(C)[C@@H]3CC[C@](C)(O)C2C2C3C4C5(C12)[C@H]1OC(=O)[C@@H](C)C1CC[C@]4(C)O[C@]5(C)[C@@H]3O (some centres unmarked)	16.2%
O=S(=O)(c1cc(Cl)ccc1Cl)N1CCCCC1	-7.55%
CCCCN(C)CCCNC(=O)/C=C1\Sc2ccccc2NC1=O	-28.6%
COC(=O)CSc1cnc2ccccc2n1	10.3%
CCCCCC(=O)Nc1ccc(-c2nnc3n2CCCCC3)cc1	-5.53%
S=c1[nH]nc(CNc2ccc(Cl)cc2)n1Cc1ccccc1	10.6%
CC(OC(=O)c1ccc(S(=O)(=O)NCc2ccco2)cc1)C(=O)Nc1ncc(Cl)cc1Cl (centres unmarked)	-1.25%
CCC(C)(C)NC(=O)/C=C/c1ccccc1[N+](=O)[O-]	-9.32%
Cc1nn2c(-c3cccnc3)ccnc2c1-c1ccccc1	-5.4%
CSc1nc2sc3c(c2c(=S)[nH]1)CC(C)(C)OC3	20%
Cc1nnc(N/N=C/c2cccs2)[nH]c1=O	-6.59%

Compound	hERG current change (%, negative = inhibition) at 10uM
O=C(CN1CCCc2ccccc21)N/N=C/c1ccc(F)cc1F	-2.52%
CC1Sc2ccc(S(=O)(=O)NCCc3ccccc3)cc2NC1=O (centres unmarked)	12.5%
Cc1ccc(OCCOCCOc2cccc3cccnc23)c(Br)c1	2.64%
Cc1cc2c(s1)NC(=O)CN=C2c1cccs1	9.61%
CCCCc1ccc(NC(=S)NCCc2ccc(S(N)(=O)=O)cc2)cc1	9.1%
CCCNC(=O)OC[C@H]1O[C@H](CCO/N=C/C[C@@H]2C=C[C@H](OC(C)=O)[C@@H](COC(C)=O)O2)C=C[C@@H]1Oc1ccc(OC)cc1	-59.7%
O=C(CSCc1ccc([N+](=O)[O-])cc1)NC1CC1	-29.7%
CCOC(=O)C(=CNc1cccc(C)c1C)C(=O)OCC	16%
NC(=O)C1CCN(S(=O)(=O)c2cccc(C(=O)O)c2)CC1	4.59%
O=[N+]([O-])c1ccc(Sc2ccc(Cl)c(Cl)c2)nc1	-11.1%
O=C1NC(c2ccc(Br)cc2)Nc2sc3c(c21)CCC3 (centres unmarked)	-45.7%
O=C(O)c1ccc(NS(=O)(=O)c2cccc(S(=O)(=O)c3ccc(Cl)c(Cl)c3)c2)cc1	-2.9%
COC(=O)c1cccc(Cn2cc([N+](=O)[O-])cn2)c1	8.41%
COc1cc2cc(CN(CCN3CCOCC3)C(=O)Nc3ccc(F)cc3)c(=O)[nH]c2cc1OC	-28.6%
COc1ccc(CNC(=O)c2cccc3c2C(=O)N(CC2CCCO2)C3)cc1 (centres unmarked)	-34.5%
COc1ccc(C2CC(c3ccccc3)=NN2C(=O)COC(=O)/C=C/c2ccc(O)c(OC)c2)cc1 (centres unmarked)	-0.0375%
O=C(NNC(=O)c1ccc(Cl)c([N+](=O)[O-])c1)c1ccncc1	13.2%
Cc1cc(C)cc(C(=O)NCC(=O)OCc2c(C)noc2C)c1	-9.66%
Cc1cccn2c(=O)c3cc(C(=O)NC4CCCC4)n(C)c3nc12	1.13%
Cc1onc(-c2ccccc2)c1C(=O)N1CCN(C(=O)c2ccco2)CC1	-0.342%
COC(=O)c1ccc(N/C=C/C(=O)c2ccc(OC)c(OC)c2)cc1	-19.7%
Cc1nonc1CC(=O)NC1CCCc2c1cnn2-c1ccc(F)cc1F (centres unmarked)	11.2%
